According to the supplement of paper PMC4166925:
± gives the standard deviation of the averaged measurements. In all, about 33,000 sequences were measured (“E-score (dimensionless, -0.5 to 0.5)”: median about -0.046, highest 2% from about 0.36 on). Some of the results follow.

Tested on: T1, SpTbr T-box DNA-binding domain (GST fusion)
T1 sequence: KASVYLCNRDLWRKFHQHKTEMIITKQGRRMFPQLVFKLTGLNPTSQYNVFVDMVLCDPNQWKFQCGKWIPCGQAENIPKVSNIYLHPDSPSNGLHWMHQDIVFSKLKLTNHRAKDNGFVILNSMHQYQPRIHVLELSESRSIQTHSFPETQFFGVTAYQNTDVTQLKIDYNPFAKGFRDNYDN
Experiment: PBM E-score of 8-mer (E-score (dimensionless, -0.5 to 0.5)); Tbr is Tbrain of the sea star Patiria miniata (Pm) or the sea urchin Strongylocentrotus purpuratus (Sp); higher = stronger binding preference; most listed sequences are background and not binding sites
Conditions: the construct has about 5 more residues each side
Outline: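 Primer extension turned Universal Agilent oligonucleotide arrays double-stranded. They were incubated with 200 nM protein in PBS (pH 7.5); the protein was a GST-fused Tbr T-box DNA-binding domain expressed in BL21 E. coli at 20 °C and purified on glutathione. Every ungapped 8-mer was scored from the scanned, quantified probe intensities, and the Universal PBM Analysis Suite gave each an enrichment E-score averaged over duplicate arrays.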

| Sequence | PBM E-score of 8-mer |
| --- | --- |
| GTTCACAA | 0.376 ± 0.02 |
| GCTGAGAC | 0.0168 ± 0.031 |
| CGAGCTAA | 0.218 ± 0.021 |
| GCTAATGA | -0.00374 ± 0.023 |
| AGGCCTAT | -0.196 ± 0.034 |
| GATGCAAA | 0.0247 ± 0.033 |
| GATGCCGA | -0.111 ± 0.07 |
| GGCGTGAC | 0.388 ± 0.0071 |
| GCTGGAGA | -0.152 ± 0.05 |
| AACATCCT | -0.1423 ± 0.00042 |
| AGACGGCT | 0.0187 ± 0.012 |
| GCCGGGTA | 0.0891 ± 0.031 |
| ACACTTGC | 0.4 ± 0.0054 |
| GTATAACA | -0.00134 ± 0.0064 |
| CGTCCGGC | -0.18 ± 0.034 |
| AAACCGGT | -0.0267 ± 0.078 |
| CCGGTTCA | -0.0987 ± 0.024 |
| GCGGTCCA | -0.0531 ± 0.045 |
| GAGGTCAA | -0.265 ± 0.03 |
| GAAGAGGC | 0.029 ± 0.065 |
| ATCCAACC | -0.0425 ± 0.035 |
| AGCGTAGG | -0.137 ± 0.037 |

| Sequence | PBM E-score of 8-mer |
| --- | --- |
| CATCTAGA | -0.25 ± 0.037 |
| TGTTAACA | 0.421 ± 0.029 |
| ACTTTTAG | 4e-05 ± 0.067 |
| GCTAGGAC | -0.185 ± 0.037 |
| TCCCTCAA | -0.147 ± 0.077 |
| ACGTGTCG | 0.362 ± 0.015 |
| GATTCGGA | -0.209 ± 0.0076 |
| ATGGTCGC | 0.0349 ± 0.097 |
| CATTGGCC | -0.025 ± 0.091 |
| GGATATAA | -0.132 ± 0.0093 |
| CCTACCCA | -0.25 ± 0.06 |
| ATACTCAG | -0.177 ± 0.028 |
| CCATGATA | -0.186 ± 0.057 |
| AGAGACCT | -0.284 ± 0.014 |
| ACATAAGC | -0.0263 ± 0.065 |
| GTGCACCA | -0.0665 ± 0.037 |
| GCCTCGGA | -0.0495 ± 0.017 |
| ACACACAT | 0.328 ± 0.0053 |
| GACTCTCA | 0.0161 ± 0.056 |
| CAGTTGAG | 0.0875 ± 0.061 |
| GCTGCGAA | 0.313 ± 0.032 |
| CGACACAA | 0.185 ± 0.03 |

| Sequence | PBM E-score of 8-mer |
| --- | --- |
| ACACAGCC | -0.0863 ± 0.057 |
| GGTTCTTA | -0.083 ± 0.11 |
| AGATCACT | 0.0864 ± 0.014 |
| GGCCGGGA | -0.228 ± 0.004 |
| CAGATAGC | 0.0549 ± 0.054 |
| TACGTCTA | -0.334 ± 0.016 |
| AGGTCGTC | 0.0482 ± 0.017 |
| AATCACAT | 0.106 ± 0.032 |
| AAGTACTT | -0.112 ± 0.098 |
| AAGCGTGG | 0.179 ± 0.047 |
| AGAACGCT | 0.0167 ± 0.0058 |
| GACACGGA | 0.0274 ± 0.051 |
| CCAATACG | -0.132 ± 0.02 |
| AAGAAATT | -0.0939 ± 0.072 |
| GACCTACA | -0.0944 ± 0.046 |
| TTCCAGAA | -0.225 ± 0.051 |
| CTTACCCA | 0.027 ± 0.0023 |
| CTGCAATA | -0.116 ± 0.018 |
| GAGATACA | -0.0218 ± 0.03 |
| AGGATCAG | -0.289 ± 0.059 |
| ACTTCAGC | -0.0821 ± 0.024 |
| GGATTACC | -0.14 ± 0.011 |

| Sequence | PBM E-score of 8-mer |
| --- | --- |
| TGTGACAA | 0.412 ± 0.0055 |
| GATAGGAA | -0.267 ± 0.017 |
| GTTTCCTA | -0.192 ± 0.052 |
| ACAGCAAC | 0.0392 ± 0.021 |
| ATCCTAAG | -0.0679 ± 0.047 |
| AAAACGGA | 0.0046 ± 0.028 |
| CGTATCAC | 0.112 ± 0.044 |
| CATTGTAC | -0.253 ± 0.028 |
| GATACAAA | -0.167 ± 0.023 |
| AAAGACGT | -0.124 ± 0.053 |
| CATGGTAG | -0.228 ± 0.037 |
| CAGCGGGG | 0.0563 ± 0.014 |
| GACTGAGC | -0.159 ± 0.068 |
| CATCATAC | -0.133 ± 0.0042 |
| ATTATCGA | -0.0078 ± 0.054 |
| GGGGTCGA | -0.0352 ± 0.02 |
| ATATCGAG | -0.13 ± 0.048 |
| ACGAAGCA | -0.138 ± 0.0035 |
| AATGCTCT | -0.22 ± 0.0091 |
| CCCTCCTA | -0.0828 ± 0.05 |
| GCAAATAC | -0.144 ± 0.014 |
| GATGGAAC | -0.0289 ± 0.024 |

| Sequence | PBM E-score of 8-mer |
| --- | --- |
| GCCTAGTA | -0.0767 ± 0.077 |
| AGAGTTAC | -0.223 ± 0.011 |
| CATTATAA | -0.0424 ± 0.007 |
| AATGTTTG | -0.0831 ± 0.06 |
| AAGCATAG | -0.335 ± 0.015 |
| ACAGTTGG | 0.115 ± 0.033 |
| CAATATTG | -0.0373 ± 0.099 |
| AGATTCAA | -0.109 ± 0.067 |
| AATTGTCA | 0.304 ± 0.024 |
| CGGGGCCC | -0.161 ± 0.022 |
| TAGACAGA | -0.0941 ± 0.02 |
| ACCGATTG | 0.107 ± 0.057 |
| AACATGCT | -0.138 ± 0.022 |
| GTAACGAA | -0.103 ± 0.016 |
| CCCATACG | -0.12 ± 0.0094 |
| CGTATGCA | -0.118 ± 0.13 |
| CAGCCAGA | -0.0717 ± 0.0031 |
| GAAAGCTC | -0.00944 ± 0.024 |
| AAAAGAGT | -0.166 ± 0.035 |
| AGAGAGGC | -0.0778 ± 0.063 |
| GAGGGTCA | -0.0628 ± 0.053 |
| GTACATGA | -0.0397 ± 0.031 |
